We go through 27 compounds from the antibiotic and cytotoxicity screens of Wong et al. (2023).

The other results are listed elsewhere or left out.

One assay has as its system HSkMC. In words: cytotoxicity call (relative viability < 0.9). The following applies: 10 µM.
In the next assay the test system is HepG2. Briefly: cytotoxicity call (relative viability < 0.9). Conditions: 10 µM.
A further assay has as its system S. aureus RN4220. In words: growth inhibition call (relative growth <= 0.2). Conditions: 50 µM.

Turning to `COc1ccc(S(=O)(=O)N(C)C[C@H]2OCCCC[C@@H](C)Oc3ccc(NC(=O)CCC(F)(F)F)cc3C(=O)N([C@@H](C)CO)C[C@@H]2C)cc1`, the cytotoxicity call in the assay with HSkMC and in the assay with HepG2 was “inactive” each time. Also, the growth inhibition call in the assay on S. aureus RN4220 was “inactive”.
In the case of `C[C@@H]1CN([C@H](C)CO)C(=O)c2cccc(NC(=O)c3cnccn3)c2O[C@@H]1CN(C)S(=O)(=O)c1cn(C)cn1`, the cytotoxicity call in the assay on HSkMC and in the assay with HepG2 was “inactive” in each case. Further, the growth inhibition call in the assay with S. aureus RN4220 is “inactive”.
In the case of `CC1(C)CC(=O)c2c(C(F)(F)F)nn(-c3ccc(C(N)=O)c(N[C@H]4CC[C@H](OC(=O)CN)CC4)c3)c2C1`, the cytotoxicity call with HSkMC and in the assay on HepG2 was “active” each time. The growth inhibition call in the assay with S. aureus RN4220 is “inactive”.
For `C[C@H](CO)N1C[C@H](C)[C@@H](CN(C)Cc2ccc3c(c2)OCO3)Oc2ccc(NC(=O)Cn3cnnn3)cc2C1=O`, the cytotoxicity call with HSkMC and in the assay with HepG2 was “inactive” each time. Besides, the growth inhibition call with S. aureus RN4220 is “inactive”.
For the compound `C[C@@H]1CCCCO[C@H](CN(C)Cc2ccc3c(c2)OCO3)[C@@H](C)CN([C@H](C)CO)C(=O)c2cc(NC(=O)Nc3cccc4ccccc34)ccc2O1`, the cytotoxicity call in the assay with HSkMC and in the assay with HepG2 was “inactive” throughout. Also, in the assay with S. aureus RN4220, the growth inhibition call was “inactive”.
In the case of `C[C@@H]1CN([C@H](C)CO)C(=O)c2cc(-c3ccncc3)cnc2O[C@@H]1CN(C)S(=O)(=O)c1ccccc1`, the cytotoxicity call with HSkMC and in the assay on HepG2 was “inactive” each time. In addition, the growth inhibition call with S. aureus RN4220 was “inactive”.
With `O=C(O)c1ccc(O)c(C(=O)O)c1`, the cytotoxicity call in the assay with HSkMC and with HepG2 was “inactive” in each case. Also, in the assay on S. aureus RN4220, the growth inhibition call was “inactive”.
As to `Cc1ccc(S(=O)(=O)N(C)C[C@H]2Oc3c(NC(=O)c4ccncc4)cccc3C(=O)N([C@@H](C)CO)C[C@H]2C)cc1`, the cytotoxicity call in the assay with HSkMC and in the assay on HepG2 was “inactive” throughout. For the same compound, the growth inhibition call in the assay with S. aureus RN4220 was “inactive”.
On to `C[C@@H]1CN([C@@H](C)CO)C(=O)Cc2cc(NS(C)(=O)=O)ccc2O[C@@H]1CN(C)C`, for which the cytotoxicity call in the assay with HSkMC and with HepG2 was “inactive” throughout. The growth inhibition call in the assay on S. aureus RN4220 is “inactive”.
With `C[C@H]1CN([C@@H](C)CO)C(=O)CCCn2cc(nn2)CO[C@@H]1CN(C)C(=O)Nc1ccc(C(F)(F)F)cc1`, the cytotoxicity call in the assay on HSkMC and with HepG2 was “inactive” throughout. For the same compound, the growth inhibition call in the assay with S. aureus RN4220 was “inactive”.
Turning to `C[C@@H]1CN([C@H](C)CO)C(=O)c2cccc(NC(=O)Nc3ccc4c(c3)OCO4)c2O[C@H]1CN(C)C(=O)Nc1ccc(C(F)(F)F)cc1`, the cytotoxicity call in the assay with HSkMC and in the assay on HepG2 was “inactive” each time. For the same compound, the growth inhibition call with S. aureus RN4220 was “inactive”.
Regarding `C[C@@H]1CCCCO[C@H](CN(C)C(=O)c2ccccc2)[C@H](C)CN([C@@H](C)CO)C(=O)c2cc(NS(=O)(=O)c3cccs3)ccc2O1`, the cytotoxicity call in the assay on HSkMC and with HepG2 was “inactive” in each case. Besides, in the assay with S. aureus RN4220, the growth inhibition call was “inactive”.
In the case of `C[C@H](CO)N1C[C@H](C)[C@@H](CN(C)C(=O)CCC(F)(F)F)OCCCC[C@H](C)Oc2ccc(NC(=O)NC3CCCCC3)cc2C1=O`, the cytotoxicity call with HSkMC and in the assay with HepG2 was “inactive” each time. Further, the growth inhibition call with S. aureus RN4220 is “inactive”.
Consider `CO[C@H]1O[C@H](COS(=O)(=O)O)[C@@H](O[C@@H]2O[C@@H](C(=O)O)[C@@H](O[C@H]3O[C@H](COS(=O)(=O)O)[C@@H](O[C@@H]4O[C@H](C(=O)O)[C@@H](O[C@H]5O[C@H](COS(=O)(=O)O)[C@@H](O)[C@H](O)[C@H]5NS(=O)(=O)O)[C@H](O)[C@H]4O)[C@H](OS(=O)(=O)O)[C@H]3NS(=O)(=O)O)[C@H](O)[C@H]2OS(=O)(=O)O)[C@H](O)[C@H]1NS(=O)(=O)O`, for which the cytotoxicity call in the assay on HSkMC and in the assay on HepG2 was “inactive” each time. Moreover, in the assay with S. aureus RN4220, the growth inhibition call was “inactive”.
On to `Cc1noc(C)c1S(=O)(=O)Nc1ccc2c(c1)CC(=O)N([C@@H](C)CO)C[C@@H](C)[C@@H](CN(C)C(=O)Nc1ccccc1)O2`, for which the cytotoxicity call with HSkMC and in the assay on HepG2 was “inactive” throughout. Moreover, in the assay with S. aureus RN4220, the growth inhibition call is “inactive”.
`C[C@H]1CCCCO[C@H](CN(C)CC2CCCCC2)[C@@H](C)CN([C@@H](C)CO)C(=O)c2cc(NC(=O)c3ccccc3)ccc2O1`: the cytotoxicity call in the assay on HSkMC and in the assay on HepG2 was “inactive” in each case. Moreover, in the assay with S. aureus RN4220, the growth inhibition call was “inactive”.
Take `C[C@@H]1CN([C@@H](C)CO)S(=O)(=O)c2ccc(-c3ccc(F)cc3)cc2O[C@H]1CN(C)S(C)(=O)=O`: the cytotoxicity call with HSkMC and in the assay on HepG2 was “inactive” in each case. Also, the growth inhibition call with S. aureus RN4220 was “inactive”.
As to `C[C@@H]1CCCCO[C@H](CN(C)C(=O)Nc2ccc3c(c2)OCO3)[C@H](C)CN([C@@H](C)CO)C(=O)c2cc(NC(=O)Nc3ccc4c(c3)OCO4)ccc2O1`, the cytotoxicity call in the assay on HSkMC and in the assay on HepG2 was “inactive” in each case. Also, in the assay with S. aureus RN4220, the growth inhibition call is “inactive”.
As for `C[C@@H]1CN([C@H](C)CO)C(=O)Cc2cc(NC(=O)CCCCCC(=O)Nc3ccccc3N)ccc2O[C@@H]1CN(C)C(=O)Nc1ccccc1`, the cytotoxicity call with HSkMC and with HepG2 was “inactive” throughout. The growth inhibition call in the assay on S. aureus RN4220 is “inactive”.
Regarding `COc1ccccc1S(=O)(=O)N[C@H]1CC[C@@H](CCNC(=O)C2CC2)O[C@H]1CO`, the cytotoxicity call in the assay on HSkMC and with HepG2 was “inactive” throughout. Moreover, in the assay on S. aureus RN4220, the growth inhibition call is “inactive”.
For `Cc1noc(C)c1NC(=O)N(C)C[C@H]1Oc2ccc(NS(=O)(=O)c3cn(C)cn3)cc2CC(=O)N([C@H](C)CO)C[C@H]1C`, the cytotoxicity call in the assay on HSkMC and in the assay with HepG2 was “inactive” throughout. The growth inhibition call in the assay with S. aureus RN4220 is “inactive”.
Turning to `C[C@H]1CN([C@@H](C)CO)C(=O)Cc2cc(NC(=O)CCC(F)(F)F)ccc2O[C@@H]1CN(C)C(=O)Nc1cccc2ccccc12`, the cytotoxicity call with HSkMC and with HepG2 was “inactive” each time. Besides, in the assay with S. aureus RN4220, the growth inhibition call was “inactive”.
Turning to `C[C@@H]1CN([C@H](C)CO)S(=O)(=O)c2ccc(C#CCN(C)C)cc2O[C@H]1CN(C)Cc1ccccn1`, the cytotoxicity call with HSkMC and in the assay with HepG2 was “inactive” in each case. Besides, the growth inhibition call in the assay on S. aureus RN4220 is “inactive”.
Turning to `C[C@H](CO)N1C[C@H](C)[C@@H](CN(C)S(C)(=O)=O)Oc2ccc(NS(=O)(=O)c3ccc(Cl)cc3)cc2C1=O`, the cytotoxicity call in the assay with HSkMC and in the assay on HepG2 was “inactive” throughout. Further, the growth inhibition call in the assay on S. aureus RN4220 was “inactive”.
In the case of `CN(C)CC#Cc1ccc([C@@H]2[C@H](CO)N3CCCCN(C(=O)CN(C)C)C[C@@H]23)cc1`, the cytotoxicity call in the assay on HSkMC and with HepG2 was “inactive” throughout. The growth inhibition call in the assay with S. aureus RN4220 is “inactive”.
Turning to `O=c1[nH]cc(/N=C/c2ccncc2)c(=O)[nH]1`, the cytotoxicity call in the assay with HSkMC and in the assay with HepG2 was “inactive” throughout. The growth inhibition call in the assay on S. aureus RN4220 is “inactive”.
Regarding `N#C/C(=C\c1ccc(O)c(O)c1)C(N)=O`, the cytotoxicity call in the assay on HSkMC (human skeletal muscle cells) was “inactive”. For the same compound, in the assay with HepG2, the cytotoxicity call is “active”. The growth inhibition call in the assay on S. aureus RN4220 was “inactive”.
